# In PubChem BioAssay AID588453 (National Center for Advancing Translational Sciences (NCATS), 2011):
# “And” between values parts separate entries of the source, which are not always exact repeats. Equal entries are not always repeated. In all, about 390,000 compounds went through this assay and about 4,000 (1%) were called active. Inconclusive means that the source gave no clear call. Such entries were picked first, then a sample of the others. The call rests on the fitted dose curve; in most records, active means well fitted inhibition curve with a large enough effect; inconclusive means small, poorly fitted or top-dose-only effect; inactive means no such curve, though single readings can be large or run the other way. A potency beside an inconclusive call is a rough fit, not a confirmed value.
# Target: Thioredoxin reductase 1, cytoplasmic (Rattus norvegicus) (UniProt O89049)
# Assay: qHTS Assay for Inhibitors of Mammalian Selenoprotein Thioredoxin Reductase 1 (TrxR1): qHTS; further: nearly all actives have a fitted effect of over 65% in size
# Conditions: recombinant rTrxR1, NADPH fluorescence consumption, selenite substrate; series mostly up to 114 µM; activity change, negative = inhibition: at the top concentration
# How it was run: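 Rat TrxR1 (90 nM in the dispensed reagent) was pre-reduced with 400 uM NADPH for 5 min at room temperature, then incubated with compound for 15 min. After 400 uM selenite was added, NADPH fluorescence (Ex 340/Em 450 nm) was followed for 8 min.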
# On the % scale 0 is the no-effect control and ±100 the full control effect; potency means the concentration at half of the fitted maximal effect; tags describe the fitted curve by direction and shape.
# Sequence of UniProt O89049 (O89049 whole entry, looked up): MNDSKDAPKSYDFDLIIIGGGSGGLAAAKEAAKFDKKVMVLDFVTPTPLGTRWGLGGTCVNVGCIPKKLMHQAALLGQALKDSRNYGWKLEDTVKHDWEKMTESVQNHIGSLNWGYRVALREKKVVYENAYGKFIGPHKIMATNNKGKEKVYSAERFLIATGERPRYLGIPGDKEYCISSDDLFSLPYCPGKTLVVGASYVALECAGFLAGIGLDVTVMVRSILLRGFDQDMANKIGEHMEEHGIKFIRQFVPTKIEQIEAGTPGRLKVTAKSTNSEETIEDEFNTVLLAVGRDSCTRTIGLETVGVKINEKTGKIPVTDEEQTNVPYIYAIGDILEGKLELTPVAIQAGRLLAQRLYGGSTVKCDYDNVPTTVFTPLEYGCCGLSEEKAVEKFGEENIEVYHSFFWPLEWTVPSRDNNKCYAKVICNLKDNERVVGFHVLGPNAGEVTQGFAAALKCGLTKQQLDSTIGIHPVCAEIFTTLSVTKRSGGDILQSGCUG
Structure (SMILES),Potency,"activity change, negative = inhibition"
COc1cc(C(=O)NC(=S)Nc2ccc([N+](=O)[O-])cc2)cc(OC)c1OC,"inconclusive: 6.31 µM [inhibitor, full curve]",
Oc1ccccc1C1=Nc2ncnn2C(c2ccccc2)C1 (stereo unspecified),"inconclusive: 3.98 µM [inhibitor, partial curve, poor fit]",
COC(=O)c1c(C)oc2ccc(N(C(=O)c3ccncc3)S(=O)(=O)c3cc(C)ccc3C)cc12,"inconclusive: 14.1 µM [inhibitor, full curve]",
CC1=CC(=O)C=C(C)C1=NOc1ccccc1[N+](=O)[O-],"inconclusive: 15.8 µM [inhibitor, full curve, poor fit]",
CC(=O)c1ccc(NCCC(=O)c2ccccc2)cc1,active: 50.1 µM,
CC(=O)c1cccc(NC(=O)CSc2nnc(C(C)N(C)C)n2Cc2ccccc2)c1 (stereo unspecified),"inconclusive: 89.1 µM [inhibitor, single point]",
CCOc1cc(C)ccc1OCc1nnc(SCC(=O)c2cccc([N+](=O)[O-])c2)n1C,"inconclusive: 31.6 µM [inhibitor, partial curve]",
CCn1c([N+](=O)[O-])nc2c1c(=O)[nH]c(=O)n2C,"inconclusive: 22.4 µM [inhibitor, full curve]",
CCC(=O)c1cn(/C(=C\C(=O)OC(C)(C)C)CCC(OC)OC)cc1CC,"inconclusive: 79.4 µM [inhibitor, partial curve]",
CCc1c(C)[nH]c2c1C(=O)C(CN1CCOCC1)CC2 (stereo unspecified),"inconclusive: 44.7 µM [inhibitor, partial curve] and inconclusive: 89.1 µM [inhibitor, single point] and inconclusive: 11.2 µM [inhibitor, partial curve]",
Cn1c(C2CC(=O)N(Cc3ccccc3)C2)nc2ccccc21 (stereo unspecified),,inactive: 5.19% [at 57.1 µM]
O=C1N/C(=C/c2ccc(N3CCOCC3)o2)C(=O)N1c1ccccc1,active: 7.08 µM,
O=c1c(-c2ccco2)[n+]([O-])c2ccccc2n1OCc1ccccn1,"inconclusive: 70.8 µM [inhibitor, single point]",
COc1ccc(OC)c(NC(=O)Nc2c(C)n(C)n(-c3ccccc3)c2=O)c1,"inconclusive: 79.4 µM [inhibitor, partial curve, poor fit]",
O=C(O)c1ccc(-c2ccc(/C=c3/sc4nc5ccccc5n4c3=O)o2)cc1Cl,"inconclusive: 56.2 µM [inhibitor, partial curve, poor fit]",
CCCCCCc1cc2cc(C(=O)Nc3ccccc3)c(=O)oc2cc1O,"inconclusive: 50.1 µM [inhibitor, partial curve]",
O=C(C1=C(O)C(=O)N(Cc2ccco2)C1c1ccccc1F)c1cccs1 (stereo unspecified),"inconclusive: 50.1 µM [inhibitor, partial curve]",
COc1ccc(N2CCN(C(=O)COCc3cc(-c4ccc5c(c4)OCO5)on3)CC2)cc1,"inconclusive: 50.1 µM [inhibitor, partial curve]",
O=C(C1=C(O)C(=O)N(CCN2CCOCC2)C1c1ccc(F)cc1)c1cc2ccccc2o1 (stereo unspecified),"inconclusive: 39.8 µM [inhibitor, partial curve]",
Cc1ccc(-n2nnnc2C(Cl)c2nnnn2-c2ccc(C)cc2)cc1,,inactive: -1.76%
CC(=O)c1cc(NC(=O)c2ccc(C)cc2)c(=O)oc1/C=C/N(C)C,"inconclusive: 70.8 µM [inhibitor, partial curve]",
COc1cccc(C2NC(=O)NC(O)(C(F)(F)F)C2C(=O)c2cccnc2)c1OC (stereo unspecified),"inconclusive: 79.4 µM [inhibitor, partial curve]",

Structure (SMILES),Potency,"activity change, negative = inhibition"
O=C(Nc1ccc(F)cc1)C1CCN(S(=O)(=O)c2ccc3c(c2)CCCN3C(=O)C2CCC2)CC1,,inactive: 13% [at 57.1 µM]
CC1C/C(=C/c2cccs2)C(=O)/C(=C/c2cccs2)C1 (stereo unspecified),"inconclusive: 79.4 µM [inhibitor, single point]",
CCOC(=O)c1cnc2ccc(C)cc2c1Nc1ccc(N(CC)CC)cc1,"inconclusive: 89.1 µM [inhibitor, partial curve, poor fit]",
c1ccc2c(c1)[nH]c1c(NCC3CCCO3)ncnc12 (stereo unspecified),,inactive: 8.76% [at 57.1 µM]
COc1ccc(C(C)=O)cc1COC(=O)CCNS(=O)(=O)c1ccc(C)cc1,"inconclusive: 31.6 µM [inhibitor, partial curve, poor fit]",
Cc1oc(C(=O)O)cc1CSCc1cc(C(=O)O)c(C)o1,,inactive: -16.2%
Cc1ccc(Nc2nc3ccccc3c(=O)s2)cc1,"inconclusive: 25.1 µM [inhibitor, single point]",
Cc1cc(=O)oc2c3c(cc(OCC(=O)N[C@H](C(=O)O)c4ccccc4)c12)OC(C)(C)CC3,"inconclusive: 89.1 µM [inhibitor, single point]",
Cc1oc(-c2ccccc2)nc1CS(=O)CC(=O)NC1CCCC1 (stereo unspecified),"inconclusive: 25.1 µM [inhibitor, single point]",
COc1ccc(C2=Nn3c(nnc3C3CCCCC3)SC2)cc1OC,,inactive: 2.7%
O=C(COC(=O)CSc1ccc(F)cc1)NCc1ccco1,"inconclusive: 56.2 µM [inhibitor, partial curve, poor fit]",
C=CCc1ccccc1OCC(O)CNC (stereo unspecified),"inconclusive: 14.1 µM [inhibitor, full curve, poor fit]",
COc1cc(OC)c(NC(=O)c2noc3c2CSc2ccccc2-3)cc1Cl,active: 7.08 µM,
CC(=O)C1=C(c2ccc(Cl)c(Cl)c2)N(C(C)=O)n2c(nnc2-c2ccccc2)S1,,inactive: 8.94% [at 57.1 µM]
CCOc1ccccc1NC(=O)CCc1nnc2ccc(NCc3ccco3)nn12,"inconclusive: 44.7 µM [inhibitor, partial curve]",
Cc1cc(N2CCCCC2)nc(NCc2ccccc2)n1,"inconclusive: 39.8 µM [inhibitor, partial curve, poor fit]",
COC(=O)c1cc2c(s1)-c1ccc(OC)cc1CC2,"inconclusive: 22.4 µM [inhibitor, single point]",
COc1ccccc1OCc1nnc(SCC(=O)NCc2ccco2)n1Cc1ccco1,"inconclusive: 22.4 µM [inhibitor, full curve]",
CCOC1(NC(=O)c2ccccc2)C(C)=CC(=O)C=C1C,"inconclusive: 50.1 µM [inhibitor, partial curve, poor fit]",
CCn1c(-c2cccc(S(=O)(=O)N3CCCC3)c2)n[nH]c1=S,,inactive: 1.92%
O=C(Nc1ccc2c(c1)OCO2)c1cc(C2CC2)on1,,inactive: 5.77% [at 57.1 µM]
O=S(=O)(c1ccc(-c2ccon2)s1)N1CCN(c2ccncc2)CC1,"inconclusive: 15.8 µM [inhibitor, partial curve]",

Structure (SMILES),Potency,"activity change, negative = inhibition"
Nc1ccc(C(=O)NNC(=O)C2COc3ccccc3O2)cc1[N+](=O)[O-] (stereo unspecified),,inactive: -6.07% [at 57.1 µM]
Cc1ccc(OC(C)C(=O)N2CCN(CCc3ccncc3)CC2)cc1C (stereo unspecified),"inconclusive: 39.8 µM [inhibitor, partial curve]",
N#CC1=C(N)NC(=S)C(C(N)=O)C1c1ccccc1F (stereo unspecified),"inconclusive: 50.1 µM [inhibitor, partial curve]",
Cc1nnc2sc(SCC(=O)Nc3ccc(Br)cc3)nn2c1=O,,inactive: 1.99% [at 57.1 µM]
Cc1ccc(NC(=S)NNC(=O)Cn2nc(C(F)F)cc2C(F)F)cc1,"inconclusive: 70.8 µM [inhibitor, partial curve, poor fit]",
C=CCn1c(C)cc(C2=NNC(=NC(C)(C)C)SC2)c1C,"inconclusive: 20 µM [inhibitor, full curve, poor fit]",
CCOC(=O)/C=C/C(=O)OCC(=O)NCc1ccccc1,active: 25.1 µM,
Cn1c(N)c(C(=O)COC(=O)c2cc(S(=O)(=O)N3CCOCC3)ccc2F)c(=O)n(C)c1=O,,inactive: 13.2%
COc1ccc(NC(=O)CNS(=O)(=O)c2cccc3nonc23)c(OC)c1,,inactive: -10.4%
CCSc1ncc(Cl)c(C(=O)N(Cc2ccccc2)c2ccc(OC)cc2)n1,,inactive: 17%
Cn1c(SC/C=C/c2ccccc2)nnc1-c1ccco1,"inconclusive: 17.8 µM [inhibitor, partial curve]",
C/C(CC(=O)Nc1ccc(F)cc1)=N\NC(=O)Cc1csc(N)n1,"inconclusive: 56.2 µM [inhibitor, partial curve, poor fit]",
O=C(Cc1cccs1)NNC(=S)NC(=O)c1ccc(F)c(F)c1,"inconclusive: 70.8 µM [inhibitor, partial curve]",
CCOC(=O)c1c(NS(=O)(=O)c2ccc(Br)cc2)sc2c1CCC2,"inconclusive: 0.251 µM [inhibitor, full curve, poor fit]",
CCOC(=O)C1CCN(C(c2ccc(OCC)cc2)c2c(O)cc(C)n(CCOC)c2=O)CC1 (stereo unspecified),active: 25.1 µM,
CC1S/C(=N/N=C/c2ccco2)N(Cc2ccc(F)cc2)C1=O (stereo unspecified),"inconclusive: 56.2 µM [inhibitor, single point]",
CCN1C(=O)S/C(=C/c2c(OCc3ccc(C(=O)O)cc3)ccc3ccccc23)C1=O,"inconclusive: 89.1 µM [inhibitor, single point]",
CN(C)CCN(C(=O)c1ccc2c(c1)CCCC2)c1nc2c(F)cccc2s1,"inconclusive: 50.1 µM [inhibitor, partial curve]",
O=C(Nc1ccccc1)/C(=C\c1ccco1)NC(=O)c1ccco1,active: 50.1 µM,
O=C(c1ccc(COc2c(F)c(F)c(F)c(F)c2F)o1)N1CCOCC1,"inconclusive: 22.4 µM [inhibitor, single point]",
COc1ccc(NC(=O)NCCCCc2ccccc2)cc1OC,,inactive: 13.5%
COC(=O)[C@@]1(Cc2ccc(F)cc2)[C@H]2c3cc(C(=O)N4CCCC4)n(CCc4ccccn4)c3C[C@H]2CN1C(=O)c1ccccc1,"inconclusive: 39.8 µM [inhibitor, partial curve, poor fit]",
